This note sets out measurements from publication PMC9597577, “Mutant Ras and inflammation-driven skin tumorigenesis is suppressed via a JNK-iASPP-AP1 axis” (Cell Reports, 2022).

Amino acid sequences for entries named in this document (tags omitted).
UniProt P01100: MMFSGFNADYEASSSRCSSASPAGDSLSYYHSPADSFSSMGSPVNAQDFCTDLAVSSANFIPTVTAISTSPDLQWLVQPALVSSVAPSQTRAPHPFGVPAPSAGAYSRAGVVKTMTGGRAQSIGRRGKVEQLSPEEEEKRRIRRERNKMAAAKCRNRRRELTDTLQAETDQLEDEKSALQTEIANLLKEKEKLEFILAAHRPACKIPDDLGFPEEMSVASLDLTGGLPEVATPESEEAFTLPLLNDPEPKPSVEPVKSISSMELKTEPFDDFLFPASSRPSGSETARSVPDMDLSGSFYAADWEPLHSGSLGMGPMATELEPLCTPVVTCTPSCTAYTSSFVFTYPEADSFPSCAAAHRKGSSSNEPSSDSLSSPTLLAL

No constants are given. Whether binding was seen depends on the method and setting. Binding seen in cells or lysates may run through a third protein. Some binding calls cover weakened binding; strength is not graded here. For some assays here: Tags and fused reporters may be left off the sequences shown.

Test [1] has as its target T1, iASPP (endogenous, HaCaT) (human (endogenous in HaCaT)) (UniProt Q8WUF5).
T1 sequence: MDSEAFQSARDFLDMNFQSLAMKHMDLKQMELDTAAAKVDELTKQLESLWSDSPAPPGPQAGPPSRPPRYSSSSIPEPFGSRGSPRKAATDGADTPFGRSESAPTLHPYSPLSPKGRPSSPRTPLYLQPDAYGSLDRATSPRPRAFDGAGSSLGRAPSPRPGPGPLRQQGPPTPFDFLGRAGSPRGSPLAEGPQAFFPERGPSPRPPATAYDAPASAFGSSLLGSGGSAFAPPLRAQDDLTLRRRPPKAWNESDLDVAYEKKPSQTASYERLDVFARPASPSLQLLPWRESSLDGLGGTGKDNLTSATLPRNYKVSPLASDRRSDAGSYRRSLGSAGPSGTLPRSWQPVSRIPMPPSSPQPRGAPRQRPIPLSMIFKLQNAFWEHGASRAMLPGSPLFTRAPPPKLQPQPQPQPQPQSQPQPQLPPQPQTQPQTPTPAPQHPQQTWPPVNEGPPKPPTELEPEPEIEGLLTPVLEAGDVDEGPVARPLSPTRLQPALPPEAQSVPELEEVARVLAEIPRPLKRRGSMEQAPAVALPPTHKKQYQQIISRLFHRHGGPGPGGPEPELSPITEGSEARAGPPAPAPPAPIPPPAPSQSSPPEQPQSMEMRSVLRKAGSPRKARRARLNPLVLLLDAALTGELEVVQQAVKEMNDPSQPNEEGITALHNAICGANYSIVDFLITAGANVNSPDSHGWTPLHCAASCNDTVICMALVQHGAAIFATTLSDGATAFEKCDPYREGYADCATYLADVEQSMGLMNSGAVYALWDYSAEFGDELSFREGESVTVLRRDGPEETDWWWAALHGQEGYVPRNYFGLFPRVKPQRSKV
Put plainly: co-IP; lysates of UV-irradiated HaCaT cells (also with DMSO or p38 inhibitor); anti-iASPP LX49.3 or LX128.5, or anti-JunD, with protein G agarose overnight at 4°C; endogenous proteins.

Test [2] concerns the target T1, iASPP (endogenous, HaCaT) (human (endogenous in HaCaT)). Put plainly: co-IP; unfractionated lysates of untreated HaCaT cells (also UV-irradiated cells pre-treated with JNK inhibitor); anti-iASPP LX49.3 or LX128.5, or anti-JunD, with protein G agarose overnight at 4°C; endogenous proteins.
In test [3] the target is T2, iASPP (endogenous, immunoprecipitated with LX49.3 or LX128.5) (human (endogenous in HaCaT)) (UniProt Q8WUF5).
T2 sequence: T1 sequence
The test is described as follows: co-IP; IP of endogenous iASPP with anti-iASPP LX49.3 from lysates of control (CTRL) cells, blot for AP1 members; each sign is one experiment (biological replicate).

Test [4] addresses T2, iASPP (endogenous, immunoprecipitated with LX49.3 or LX128.5) (human (endogenous in HaCaT)). Put plainly: co-IP; IP of endogenous iASPP with anti-iASPP LX128.5 from lysates of UV-irradiated cells, blot for AP1 members; each sign is one experiment (biological replicate).
Test [5] shares this target. The test is described as follows: co-IP; IP of endogenous iASPP with anti-iASPP LX49.3 from lysates of UV-irradiated cells, blot for AP1 members; each sign is one experiment (biological replicate).
Test [6] shares this target. Put plainly: co-IP; IP of endogenous iASPP with anti-iASPP LX128.5 from lysates of control (CTRL) cells, blot for AP1 members; each sign is one experiment (biological replicate).
Test [7] has as its target T3, Halo-tagged ASPP2 CTD (925–1128) (UniProt Q13625).
T3 sequence: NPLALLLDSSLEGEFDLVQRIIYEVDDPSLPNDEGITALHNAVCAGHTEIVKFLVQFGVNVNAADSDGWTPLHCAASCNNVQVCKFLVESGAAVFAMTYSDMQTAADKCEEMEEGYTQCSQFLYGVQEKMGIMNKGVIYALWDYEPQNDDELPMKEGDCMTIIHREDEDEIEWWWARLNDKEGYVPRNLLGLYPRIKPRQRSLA
Put plainly: pull-down; 100 μg purified Halo fusion protein immobilised on magnetic Halo beads; 20 μL in vitro translated Myc-tagged protein, 3 h at 4°C; 50 mM HEPES pH 7.5, 200 mM NaCl, 0.5 mM TCEP, 0.1% Surfactant P-20; anti-Myc blot; only the target purified.

The target of test [8] is T4, Halo-tagged ASPP1 CTD (887–1090) (UniProt Q96KQ4).
T4 sequence: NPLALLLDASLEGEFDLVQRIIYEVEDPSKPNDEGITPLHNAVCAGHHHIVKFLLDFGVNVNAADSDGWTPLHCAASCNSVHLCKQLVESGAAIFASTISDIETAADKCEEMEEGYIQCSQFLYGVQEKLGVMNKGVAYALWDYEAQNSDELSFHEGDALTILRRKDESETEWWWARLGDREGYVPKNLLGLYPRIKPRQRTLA
Described as above.

Test [9] concerns the target T5, Halo-tagged iASPP CTD (625–828) (UniProt Q8WUF5).
T5 sequence: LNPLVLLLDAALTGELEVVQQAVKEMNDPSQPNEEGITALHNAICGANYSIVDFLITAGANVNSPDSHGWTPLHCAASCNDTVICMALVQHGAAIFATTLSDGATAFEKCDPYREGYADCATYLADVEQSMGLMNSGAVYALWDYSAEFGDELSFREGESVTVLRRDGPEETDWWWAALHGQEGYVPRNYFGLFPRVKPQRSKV
Described as above.

Test [10] concerns the target T5, Halo-tagged iASPP CTD (625–828). The test is described as follows: pull-down; displacement pull-down: Halo-iASPP CTD on magnetic Halo beads, in vitro translated Myc-tagged protein, with or without 25 μM JunD or PP1 peptide; anti-Myc blot; only the target purified.
In test [11] the target is T1, iASPP (endogenous, HaCaT) (human (endogenous in HaCaT)). The test is described as follows: co-IP; nuclear fraction lysates from subcellular fractionation of HaCaT and IMOK keratinocytes; anti-iASPP LX128.5 or LX49.3; endogenous proteins.
Test [12] addresses T6, iASPP (endogenous, IMOK) (mouse (endogenous in IMOK)) (UniProt Q5I1X5).
T6 sequence: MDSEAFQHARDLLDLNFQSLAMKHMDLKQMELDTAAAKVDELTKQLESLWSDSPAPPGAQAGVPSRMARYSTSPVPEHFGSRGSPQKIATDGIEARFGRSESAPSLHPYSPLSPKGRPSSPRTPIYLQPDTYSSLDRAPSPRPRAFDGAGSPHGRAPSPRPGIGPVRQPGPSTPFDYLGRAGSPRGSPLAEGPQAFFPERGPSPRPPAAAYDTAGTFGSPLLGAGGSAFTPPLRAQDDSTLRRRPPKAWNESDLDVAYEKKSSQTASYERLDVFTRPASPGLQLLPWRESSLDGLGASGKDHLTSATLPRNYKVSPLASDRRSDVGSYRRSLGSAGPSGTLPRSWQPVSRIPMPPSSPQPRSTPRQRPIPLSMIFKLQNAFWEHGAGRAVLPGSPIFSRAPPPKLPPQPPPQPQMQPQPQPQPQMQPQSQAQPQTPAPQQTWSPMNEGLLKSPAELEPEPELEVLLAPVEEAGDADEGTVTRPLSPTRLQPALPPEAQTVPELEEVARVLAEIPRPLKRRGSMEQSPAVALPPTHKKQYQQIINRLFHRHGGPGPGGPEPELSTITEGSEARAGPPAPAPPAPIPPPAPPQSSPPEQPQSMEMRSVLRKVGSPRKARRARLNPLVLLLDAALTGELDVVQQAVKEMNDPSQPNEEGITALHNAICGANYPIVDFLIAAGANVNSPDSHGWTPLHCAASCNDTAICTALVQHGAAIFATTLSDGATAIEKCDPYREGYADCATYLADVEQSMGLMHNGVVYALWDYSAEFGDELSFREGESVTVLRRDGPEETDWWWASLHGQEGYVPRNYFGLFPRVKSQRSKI
The test is described as above.

Turning to “c-Fos (endogenous, HaCaT) (from UniProt P01100 1-380)”, the binding entry in test [1] and in [2] was “no binding” each time.
Turning to “c-Fos (endogenous) (from UniProt P01100 1-380)”, the binding result in test [3], in test [4], in [5] and in test [6] was “no binding” in each case.

B1: Myc-tagged JunB (protein, UniProt P17275 1-347)
chain: MCTKMEQPFYHDDSYTATGYGRAPGGLSLHDYKLLKPSLAVNLADPYRSLKAPGARGPGPEGGGGGSYFSGQGSDTGASLKLASSELERLIVPNSNGVITTTPTPPGQYFYPRGGGSGGGAGGAGGGVTEEQEGFADGFVKALDDLHKMNHVTPPNVSLGATGGPPAGPGGVYAGPEPPPVYTNLSSYSPASASSGGAGAAVGTGSSYPTTTISYLPHAPPFAGGHPAQLGLGRGASTFKEEPQTVPEARSRDATPPVSPINMEDQERIKVERKRLRNRLAATKCRKRKLERIARLEDKVKTLKAENAGLSSTAGLLREQVAQLKQKVMTHVSNGCQLLLGVKGHAF
For B1, the binding result in test [7], in [8], in test [9] and in test [10] was “binds” throughout.

B2: JunB (endogenous, HaCaT) (protein, UniProt P17275 1-347)
chain: B1 chain
Consider B2, for which the binding entry in test [11] and in [2] was “binds” throughout.

B3: JunB (endogenous, IMOK) (protein, UniProt P09450 1-344)
chain: MCTKMEQPFYHDDSYAAAGYGRSPGSLSLHDYKLLKPTLALNLADPYRGLKGPGARGPGPEGSGAGSYFSGQGSDTGASLKLASTELERLIVPNSNGVITTTPTPPGQYFYPRGGGSGGGTGGGVTEEQEGFADGFVKALDDLHKMNHVTPPNVSLGASGGPQAGPGGVYAGPEPPPVYTNLSSYSPASAPSGGSGTAVGTGSSYPTATISYLPHAPPFAGGHPAQLGLSRGASAFKEEPQTVPEARSRDATPPVSPINMEDQERIKVERKRLRNRLAATKCRKRKLERIARLEDKVKTLKAENAGLSSAAGLLREQVAQLKQKVMTHVSNGCQLLLGVKGHAF
For B3, the binding result in [12] was “binds”.

B4: JunD (endogenous, IMOK) (protein, UniProt P15066 1-341)
chain: METPFYGEEALSGLAAGASSVAGATGAPGGGGFAPPGRAFPGAPPTSSMLKKDALTLSLAEQGAAGLKPGSATAPSALRPDGAPDGLLASPDLGLLKLASPELERLIIQSNGLVTTTPTSTQFLYPKVAASEEQEFAEGFVKALEDLHKQSQLGAATAATSGAPAPPAPADLAATPGATETPVYANLSSFAGGAGPPGGAATVAFAAEPVPFPPPPGALGPPPPPHPPRLAALKDEPQTVPDVPSFGDSPPLSPIDMDTQERIKAERKRLRNRIAASKCRKRKLERISRLEEKVKTLKSQNTELASTASLLREQVAQLKQKVLSHVNSGCQLLPQHQVPAY
Turning to B4, the binding result in [12] is “binds”.
